According to patent US7432045B2 (priority 2003, dated 2008):

System: HSV-1 KOS

Row | Structure (SMILES) | antiviral activity, EB compared to acyclovir (added one hour prior to infection, high = exceeding 10 μM) | antiviral activity, EB compared to acyclovir
1 | CC(C)C[C@H](NC(=O)[C@H](C)NC(=O)[C@H](CC(C)C)NC(=O)[C@H](CC(C)C)NC(=O)[C@@H](NC(=O)[C@H](C)NC(=O)[C@@H]1CCCN1C(=O)[C@H](CC(C)C)NC(=O)[C@H](CC(C)C)NC(=O)[C@H](C)NC(=O)[C@@H](NC(=O)[C@H](C)NC(=O)[C@H](C)NC(=O)[C@H](CCCCN)NC(=O)[C@H](CCCCN)NC(=O)[C@H](CCCNC(=N)N)NC(=O)[C@@H](N)CCCNC(=N)N)C(C)C)C(C)C)C(=O)N[C@@H](CC(C)C)C(=O)N[C@@H](C)C(=O)N1CCC[C@H]1C(=O)O [EB] (H-RRKKAAVALLPAVLLALLAP-OH) | greatest antiviral activity | 
2 | Nc1nc2c(ncn2COCCO)c(=O)[nH]1 [acyclovir, reference compound] |  | highest antiviral activity at low dosages

Read-outs that look alike come from different tables or passages of the source. Peptide text beside a SMILES is read from it.
